The record followed here is PubChem BioAssay AID493208 (National Center for Advancing Translational Sciences (NCATS), 2011).

Out of some 44,000 compounds screened, about 340 (0.77%) were called active. Another 5% or so got no clear call; they are omitted. Calls come from the whole dose curve; as a rule, active = well fitted inhibition curve with a large enough effect; inconclusive = small, poorly fitted or top-dose-only effect; inactive = flat fitted curve, though single readings scatter. Some of the results follow.
Potency is the fitted concentration of half-maximal effect.

A short description of this test: Acumen qHTS Assay for Inhibitors of the mTORC1 Signaling Pathway in MEF (Tsc2-/-, p53-/-) Cells: Sytravon.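 For activity change, negative = inhibition: plate controls were DMSO for no effect and rapamycin for full effect.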 Note: nearly all actives have a fitted effect of over 50% in size. Particulars: phospho-rpS6 immunofluorescence/PI, 24 h; series mostly up to 38.3 µM; activity change, negative = inhibition: at the top concentration. The procedure, abridged:
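Tsc2-/-, p53-/- mouse embryonic fibroblasts (empty-vector line) exposed to compound 24 hrs at 37 C, fixed, immunostained for phospho-rpS6 and counterstained with propidium iodide. Acumen laser scanning gives % positive cells from Alexa 488/PI ratio, thresholded using 7.5 nM rapamycin; PI count gives viability.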
As to `COc1ccc(NC(=O)CCc2nc(C3=CCN(Cc4cccc(C)c4)CC3)no2)c(OC)c1`, the “activity change, negative = inhibition” value is inactive: -16.7%. For the molecule `COc1ccc(OC)c(CCNCc2c(C(=O)O)c(C)n(Cc3ccc(F)cc3Cl)c2C)c1`, the “activity change, negative = inhibition” value is inactive: 0.609%.

For the molecule `Cc1cccc(C)c1OCC(=O)Nc1ccc(Cl)cc1C(=O)c1ccccc1`, the “activity change, negative = inhibition” value was inactive: -1.11%. As to `O=C(NCCSc1c(-c2ccc(F)cc2)[nH]c2ccccc12)c1ccc(S(=O)(=O)N2CCOCC2)cc1`, the Potency is active: 14.7 µM. Consider `O=C(COc1ccccc1[N+](=O)[O-])N1CCN(CCc2ccncc2)CC1`, for which the “activity change, negative = inhibition” value was inactive: 0%. In the case of `COc1ccc(C)cc1NC(=O)c1cccn(Cc2ccccc2Cl)c1=O`, the “activity change, negative = inhibition” value is inactive: 0.8%.

Turning to `O=C1CC(c2ccccc2Br)c2c(c3ccccc3oc2=O)O1` (stereo not given), the “activity change, negative = inhibition” value is inactive: -4.32%. On the same count and under the same terms, the figure for `Cc1ccc(-n2c(/C=C/c3ccccc3)nc3ccccc3c2=O)cc1Cl` is inactive: 5.73%; for `Cn1c(=O)n(C)c2cc(CNCCc3ccccc3F)ccc21` it is inactive: -9.18%. Take `N#Cc1ccccc1NC(=O)c1cccn(Cc2ccccc2)c1=O`: the “activity change, negative = inhibition” value was inactive: -14.8%. The same measure, in the same setting: the figure for `CCOC(=O)c1ccc(NC(=O)c2cccn(Cc3ccccc3F)c2=O)cc1` is inactive: 0.326%; for `COc1ccc(Cl)cc1NC(=O)c1sc2nc3c(cc2c1N)N1CCC3CC1` it is inactive: -1.22%; for `CCC(C(=O)Nc1ccccc1F)N1C(=O)CN=C(c2ccccc2)c2ccccc21` (stereo not given) it is inactive: -10.8%. For `CC(C)c1ccc(NC(=O)CN2C(=O)CN=C(c3ccccc3)c3ccccc32)cc1`, the “activity change, negative = inhibition” value is inactive: 7.26%. For `CCCc1ccc(OCC(=O)Nc2ccc(Cl)cc2C(=O)c2ccccc2)cc1`, the “activity change, negative = inhibition” value was inactive: 13.8%. On the same count and under the same terms, the figure for `Cc1cccc(CN2C(=O)CN=C(c3ccccc3)c3cc(Cl)ccc32)c1` is inactive: -6.59%; for `COc1ccc(-c2nc(CN3C(=O)CN=C(c4ccccc4Cl)c4cc(Cl)ccc43)c(C)o2)cc1OC` it is inactive: 0.9%. The same measure, in the same setting: the value for `O=C(Cn1cc(C(=O)c2ccccc2)c2ccccc21)Nc1ccc(Br)cc1` was inactive: -3.98%; that for `Cc1cc(NC(=O)c2cccn(Cc3cccc([N+](=O)[O-])c3)c2=O)no1` was inactive: -5.58%; that for `CCOc1ccc2nc(NC(=O)c3cccn(Cc4ccccc4C)c3=O)sc2c1` was inactive: 0.0858%. In the case of `CCC(=O)N1CC(=O)Nc2ccc(C)cc2C1c1ccc(F)cc1` (stereo not given), the “activity change, negative = inhibition” value is inactive: -18.6%. `Cn1c(=O)n(C)c2cc(CNCCc3ccccc3)ccc21`: the “activity change, negative = inhibition” value was inactive: 0%. Regarding `Cc1ccccc1Cn1cccc(C(=O)Nc2cc(Cl)ccc2C#N)c1=O`, the “activity change, negative = inhibition” value is inactive: -5.44%. On to `O=C(Nc1ccc2c(c1)OCO2)c1cccn(Cc2ccc(F)cc2)c1=O`, for which the “activity change, negative = inhibition” value was inactive: 0.406%.

With `Cc1oc(-c2ccc(Cl)cc2)nc1CN1C(=O)CN=C(c2ccccc2)c2cc(Cl)ccc21`, the “activity change, negative = inhibition” value was inactive: -0.931%. For the molecule `COc1ccc(-c2nn3c(=O)cc(CN4CCN(C(=O)COc5ccc(F)cc5)CC4)nc3s2)cc1`, the “activity change, negative = inhibition” value is inactive: 1.98%. As for `O=C1CN=C(c2ccccc2)c2cc(Cl)ccc2N1Cc1ccc(Cl)cc1`, the “activity change, negative = inhibition” value is inactive: 1.84%. Turning to `COc1ccccc1-n1c(/C=C/c2ccccc2)nc2ccccc2c1=O`, the “activity change, negative = inhibition” value is inactive: 10.3%. As for `CCc1ccc(OCC(=O)N2CCN(CCc3ccccn3)CC2)cc1`, the “activity change, negative = inhibition” value was inactive: 0.135%.

With `COc1ccc(-c2nc(CN3C(=O)CN=C(c4ccccc4)c4ccccc43)c(C)o2)cc1OC`, the “activity change, negative = inhibition” value is inactive: 1.87%. Turning to `COc1cc(/C=C/c2nc3ccccc3c(=O)n2-c2ccc(Br)c(C)c2)ccc1O`, the “activity change, negative = inhibition” value is inactive: 0.314%.

On to `CCCCc1nc2ccccc2c(=O)n1-c1cccc(OC)c1`, for which the “activity change, negative = inhibition” value was inactive: -0.123%. Still for that read-out and setting: the value for `O=C(c1ccc2c(c1)N(Cc1ccc(F)cc1Cl)C(=O)c1ccccc1S2)N1CCC2(CC1)OCCO2` was inactive: 9.54%; that for `Cc1ccc(NC(=O)CN2C(=O)CN=C(c3ccccc3)c3ccccc32)c(C)c1` was inactive: 0.894%. Consider `N#Cc1cc2c(nc1SCC(=O)Nc1cccc(F)c1)C1CCN2CC1`, for which the “activity change, negative = inhibition” value was inactive: 4.11%.

As for `CCOc1ccc(-n2c(/C=C/c3ccccc3)nc3ccccc3c2=O)cc1`, the “activity change, negative = inhibition” value was inactive: 0%.

With `CSc1ccc(C(c2c(O)c3ccccc3oc2=O)c2c(C)n(C)n(-c3ccccc3)c2=O)cc1` (stereo not given), the “activity change, negative = inhibition” value was inactive: 0%. On the same count and under the same terms, the value for `CN1CCN(c2csc3ccc(F)cc3c2=O)CC1` was inactive: 11.7%. In the case of `O=C(Nc1ccc2c(c1)OCCO2)c1cccn(Cc2cccc([N+](=O)[O-])c2)c1=O`, the “activity change, negative = inhibition” value is inactive: -0.194%. For `N#Cc1cc([N+](=O)[O-])ccc1NC(=O)c1cccn(Cc2cccc(F)c2)c1=O`, the “activity change, negative = inhibition” value was inactive: 0.278%. The same measure, in the same setting: the figure for `COc1ccc(NC(=O)CN2C(=O)C(C)N=C(c3ccccc3F)c3cc(Cl)ccc32)c(OC)c1` (stereo not given) is inactive: 0.498%. On to `Cc1cc(C)cc(-n2c(/C=C/c3cccc(F)c3)nc3ccccc3c2=O)c1`, for which the “activity change, negative = inhibition” value is inactive: 15.7%.

`Cc1ccc(NC(=O)N(Cc2ccc3c(c2)OCO3)C2CCN(Cc3ccccc3)CC2)cc1F`: the “activity change, negative = inhibition” value is inactive: 0%. Turning to `COc1ccc(OC)c(NC(=O)Cn2cc(C(=O)c3ccccc3F)c3ccccc32)c1`, the “activity change, negative = inhibition” value was inactive: -1.49%. Regarding `Cc1nnc(NC(=O)c2cccn(Cc3ccc(Cl)cc3)c2=O)s1`, the “activity change, negative = inhibition” value was inactive: -1.81%. As for `Cc1cc(C)cc(-n2c(=O)[nH]c3ccccc3c2=O)c1`, the “activity change, negative = inhibition” value was inactive: -22.9%. For `CCCSc1nc2ccccc2c(=O)n1-c1ccccc1OC`, the “activity change, negative = inhibition” value is inactive: 16%.

In the case of `CCC12CN3CC(CC)(CN(C1)C3c1ccccn1)C2=O` (stereo not given), the “activity change, negative = inhibition” value was inactive: 1.82%.

Regarding `CC(=O)N1CC(=O)Nc2ccc(F)cc2C1c1ccccc1` (stereo not given), the “activity change, negative = inhibition” value was inactive: -5.27%. For `Cc1nnc(NC(=O)c2cccn(Cc3ccccc3F)c2=O)s1`, the “activity change, negative = inhibition” value is inactive: 2.67%.
